# Measured values taken from the supplement of paper PMC8728848.
# The list shows a part of the results.
# B1: PfulAvr4 (Pseudocercospora fuligena) (protein)
# chain: HHHHHHDYKDDDDKTYVQDKTPAFVCPAADIKTTKCLGPKDCLYPSPKTCNGYIQCSPADDSYLTGIIHEMPCPSGLLWNDNKKWCDWPENTTCGLVKSAGATEVDATKQGPTPGKYHG
# Key:
# Assay in all cases: glycan array binding signal (z-score within array); higher = stronger binding
# Settings in all cases: glycan notation: IUPAC condensed, linker removed
# [1] = molecular target: Neu5Ac(a2-6)Gal(b1-4)GlcNAc(b1-3)Gal(b1-4)GlcNAc(b1-3)Gal(b1-4)GlcNAc(b1-2)Man(a1-3)[Neu5Ac(a2-6)Gal(b1-4)GlcNAc(b1-3)Gal(b1-4)GlcNAc(b1-3)Gal(b1-4)GlcNAc(b1-2)Man(a1-6)]GalNAc
# Summary of the method: (§1)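 Arrays were curated from the Consortium for Functional Glycomics database, 3228 in total, and kept only where the protein sequence was available. Binding is expressed as a within-array Z-score. This score was averaged across arrays of the same protein sequence at different concentrations or buffers and across linkers, and negative values can be read as non-binding.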
# [2] = molecular target: Neu5Ac(a2-6)Gal(b1-4)GlcNAc(b1-3)Gal(b1-4)GlcNAc(b1-3)GalNAc
# Summary of the method: as §1
# [3] = molecular target: Neu5Ac(a2-6)Gal(b1-4)GlcNAc(b1-3)Gal(b1-4)GlcNAc(b1-3)[Neu5Ac(a2-6)Gal(b1-4)GlcNAc(b1-3)Gal(b1-4)GlcNAc(b1-6)]GalNAc
# Summary of the method: as §1
# [4] = molecular target: Neu5Ac(a2-6)Gal(b1-4)GlcNAc(b1-3)Gal(b1-4)GlcNAc(b1-6)[Gal(b1-3)]GalNAc
# Summary of the method: as §1
# [5] = molecular target: Neu5Ac(a2-6)Gal(b1-4)GlcNAc(b1-3)Gal(b1-4)[Fuc(a1-3)]GlcNAc(b1-3)Gal(b1-4)[Fuc(a1-3)]GlcNAc
# Summary of the method: as §1
# [6] = molecular target: Neu5Ac(a2-6)Gal(b1-4)GlcNAc(b1-3)GalNAc
# Summary of the method: as §1
# [7] = molecular target: Neu5Ac(a2-6)Gal(b1-4)GlcNAc(b1-3)[Neu5Ac(a2-6)Gal(b1-4)GlcNAc(b1-6)]GalNAc
# Summary of the method: as §1
# [8] = molecular target: Neu5Ac(a2-6)Gal(b1-4)GlcNAc(b1-6)GalNAc
# Summary of the method: as §1
# [9] = molecular target: Neu5Ac(a2-6)Gal(b1-4)GlcNAc(b1-6)[Gal(b1-3)GlcNAc(b1-3)]Gal(b1-4)Glc
# Summary of the method: as §1
# [10] = molecular target: Neu5Ac(a2-6)Gal(b1-4)GlcNAc(b1-6)[Gal(b1-3)]GalNAc
# Summary of the method: as §1
# [11] = molecular target: Neu5Ac(a2-6)Gal(b1-4)GlcNAc6S
# Summary of the method: as §1
# Neu5Ac(a2-6)GalNAc = molecular target: Neu5Ac(a2-6)GalNAc
# Summary of the method: as §1
# [12] = molecular target: Neu5Ac(a2-6)GalNAc(b1-4)GlcNAc
# Summary of the method: as §1
# [13] = molecular target: Neu5Ac(a2-6)GalNAc(b1-4)GlcNAc6S
# Summary of the method: as §1
# [14] = molecular target: Neu5Ac(a2-6)GlcNAc(b1-4)GlcNAc
# Summary of the method: as §1
# [15] = molecular target: Neu5Ac(a2-6)GlcNAc(b1-4)GlcNAc(b1-4)GlcNAc
# Summary of the method: as §1
# Neu5Ac(a2-8)Neu5Ac = molecular target: Neu5Ac(a2-8)Neu5Ac
# Summary of the method: as §1
# [16] = molecular target: Neu5Ac(a2-8)Neu5Ac(a2-3)Gal(b1-3)GalNAc(b1-4)[Neu5Ac(a2-3)]Gal(b1-4)Glc
# Summary of the method: as §1
# [17] = molecular target: Neu5Ac(a2-8)Neu5Ac(a2-3)Gal(b1-3)GalNAc(b1-4)[Neu5Ac(a2-8)Neu5Ac(a2-3)]Gal(b1-4)Glc
# Summary of the method: as §1
# [18] = molecular target: Neu5Ac(a2-8)Neu5Ac(a2-3)Gal(b1-4)Glc
# Summary of the method: as §1
# [19] = molecular target: Neu5Ac(a2-8)Neu5Ac(a2-3)Gal(b1-4)GlcNAc
# Summary of the method: as §1
# [20] = molecular target: Neu5Ac(a2-8)Neu5Ac(a2-3)[Gal(b1-3)GalNAc(b1-4)]Gal(b1-4)Glc
# Summary of the method: as §1
# [21] = molecular target: Neu5Ac(a2-8)Neu5Ac(a2-3)[GalNAc(b1-4)]Gal(b1-4)Glc
# Summary of the method: as §1
# [22] = molecular target: Neu5Ac(a2-8)Neu5Ac(a2-8)Neu5Ac
# Summary of the method: as §1
# [23] = molecular target: Neu5Ac(a2-8)Neu5Ac(a2-8)Neu5Ac(a2-3)Gal(b1-4)Glc
# Summary of the method: as §1
# [24] = molecular target: Neu5Ac(a2-8)Neu5Ac(a2-8)Neu5Ac(a2-3)[Gal(b1-3)GalNAc(b1-4)]Gal(b1-4)Glc
# Summary of the method: as §1
# [25] = molecular target: Neu5Ac(a2-8)Neu5Ac(a2-8)Neu5Ac(a2-3)[GalNAc(b1-4)]Gal(b1-4)Glc
# Summary of the method: as §1
# [26] = molecular target: Neu5Ac(a2-8)Neu5Ac(a2-8)Neu5Ac(a2-8)Neu5Ac(a2-3)[GalNAc(b1-4)]Gal(b1-4)Glc
# Summary of the method: as §1
# [27] = molecular target: Neu5Ac(a2-8)Neu5Gc(a2-3)Gal(b1-4)GlcNAc
# Summary of the method: as §1
# [28] = molecular target: Neu5Ac(b2-6)Gal(b1-4)GlcNAc
# Summary of the method: as §1
# Neu5Ac(b2-6)GalNAc = molecular target: Neu5Ac(b2-6)GalNAc
# Summary of the method: as §1
# [29] = molecular target: Neu5Ac9Ac(a2-3)Gal(b1-3)GlcNAc
# Summary of the method: as §1
# [30] = molecular target: Neu5Ac9Ac(a2-3)Gal(b1-4)GlcNAc
# Summary of the method: as §1
# [31] = molecular target: Neu5Ac9Ac(a2-6)Gal(b1-4)GlcNAc
# Summary of the method: as §1
# [32] = molecular target: Neu5Gc(a2-3)Gal(b1-3)GlcNAc
# Summary of the method: as §1
# [33] = molecular target: Neu5Gc(a2-3)Gal(b1-3)[Fuc(a1-4)]GlcNAc
# Summary of the method: as §1
# Neu5Gc(a2-3)Gal(b1-4)Glc = molecular target: Neu5Gc(a2-3)Gal(b1-4)Glc
# Summary of the method: as §1
# [34] = molecular target: Neu5Gc(a2-3)Gal(b1-4)GlcNAc
# Summary of the method: as §1
# [35] = molecular target: Neu5Gc(a2-3)Gal(b1-4)GlcNAc(b1-3)Gal(b1-4)GlcNAc(b1-2)Man(a1-3)[Neu5Gc(a2-3)Gal(b1-4)GlcNAc(b1-3)Gal(b1-4)GlcNAc(b1-2)Man(a1-6)]Man(b1-4)GlcNAc(b1-4)GlcNAc
# Summary of the method: as §1
# [36] = molecular target: Neu5Gc(a2-3)Gal(b1-4)[Fuc(a1-3)]GlcNAc
# Summary of the method: as §1
# [37] = molecular target: Neu5Gc(a2-6)Gal(b1-4)GlcNAc
# Summary of the method: as §1
# Neu5Gc(a2-6)GalNAc = molecular target: Neu5Gc(a2-6)GalNAc
# Summary of the method: as §1
# [38] = molecular target: Neu5Gc(a2-8)Neu5Ac(a2-3)Gal(b1-4)GlcNAc
# Summary of the method: as §1
# [39] = molecular target: Neu5Gc(a2-8)Neu5Gc(a2-3)Gal(b1-4)GlcNAc
# Summary of the method: as §1
# [40] = molecular target: Neu5Gc(a2-8)Neu5Gc(a2-3)Gal(b1-4)GlcNAc(b1-3)Gal(b1-4)GlcNAc
# Summary of the method: as §1
binder,measurement,setting,value
B1,glycan array binding signal (z-score),[1],-0.005
same,glycan array binding signal (z-score),[2],-0.1
same,glycan array binding signal (z-score),[3],-0.095
same,glycan array binding signal (z-score),[4],-0.158
same,glycan array binding signal (z-score),[5],-0.033
same,glycan array binding signal (z-score),[6],-0.155
same,glycan array binding signal (z-score),[7],-0.12
same,glycan array binding signal (z-score),[8],0.004
same,glycan array binding signal (z-score),[9],-0.105
same,glycan array binding signal (z-score),[10],-0.114
same,glycan array binding signal (z-score),[11],-0.111
same,glycan array binding signal (z-score),Neu5Ac(a2-6)GalNAc,-0.079
same,glycan array binding signal (z-score),[12],-0.2
same,glycan array binding signal (z-score),[13],-0.124
same,glycan array binding signal (z-score),[14],-0.012
same,glycan array binding signal (z-score),[15],0.002
same,glycan array binding signal (z-score),Neu5Ac(a2-8)Neu5Ac,-0.092
same,glycan array binding signal (z-score),[16],-0.123
same,glycan array binding signal (z-score),[17],0.146
same,glycan array binding signal (z-score),[18],-0.074
same,glycan array binding signal (z-score),[19],-0.099
same,glycan array binding signal (z-score),[20],-0.093
same,glycan array binding signal (z-score),[21],-0.028
same,glycan array binding signal (z-score),[22],-0.137
same,glycan array binding signal (z-score),[23],-0.158
same,glycan array binding signal (z-score),[24],-0.012
same,glycan array binding signal (z-score),[25],-0.132
same,glycan array binding signal (z-score),[26],-0.054
same,glycan array binding signal (z-score),[27],-0.124
same,glycan array binding signal (z-score),[28],-0.156
same,glycan array binding signal (z-score),Neu5Ac(b2-6)GalNAc,-0.151
same,glycan array binding signal (z-score),[29],-0.107
same,glycan array binding signal (z-score),[30],-0.133
same,glycan array binding signal (z-score),[31],-0.14
same,glycan array binding signal (z-score),[32],-0.161
same,glycan array binding signal (z-score),[33],-0.082
same,glycan array binding signal (z-score),Neu5Gc(a2-3)Gal(b1-4)Glc,-0.048
same,glycan array binding signal (z-score),[34],-0.141
same,glycan array binding signal (z-score),[35],-0.112
same,glycan array binding signal (z-score),[36],-0.132
same,glycan array binding signal (z-score),[37],-0.065
same,glycan array binding signal (z-score),Neu5Gc(a2-6)GalNAc,0.034
same,glycan array binding signal (z-score),[38],0.005
same,glycan array binding signal (z-score),[39],-0.073
same,glycan array binding signal (z-score),[40],-0.178
